We go through two molecules from PubChem BioAssay AID2060611 (Molecular Pharmacology Branch, DTP, NCI, 2025).

The subject of this assay is 628569-122-R-J1-PDC complex spheroid viability. Put plainly: Anticancer human tumor 628569-122-R-J1-PDC patient-derived head and neck squamous carcinoma cell line growth inhibition [CLK]. Conditions: compound alone. The source says:
A high-throughput screen of multi-cell type tumor spheroids was designed to identify active combinations of […] and targeted small molecules. Complex spheroids include a stromal component modeled by human endothelial cells (HUVEC) and fibroblasts modeled by human mesenchymal stem cells (MSCs). The concentration ranges selected for each drug and investigational agent were based upon clinically achievable concentrations if the clinical Cmax of the agent was known.
Compounds. The drugs and investigational agents: cirtuvivint (SM08502; NSC835563), CC-671 (NSC850746), vemurafenib (NSC761431), tapotoclax (NSC804041), sotorasib (NSC818433), adagrasib (NSC831453), MRTX-1133 (NSC836407), BAY2416964 (NSC825713), copanlisib (NSC816437), inavolisib (NSC800729), abemaciclib (NSC768073), osimertinib (NSC779217), entinostat (NSC756642), eltanexor (KPT-8602, NSC794443), venetoclax (NSC766270), ceralasertib (NSC777638), bortezomib (NSC756655), olaparib (NSC753686), talazoparib (NSC767125), alisertib (NSC759677), peposertib (NSC802822), gemcitabine (NSC613327), 5-fluorouracil (NSC19893), SN-38 (NSC673596), oxaliplatin (NSC266046), paclitaxel (NSC125973), and doxorubicin (NSC123127), were obtained from the National Cancer Institute (NCI) Developmental Therapeutics Program Chemical Repository. […] If the clinical Cmax for an agent had not been determined, the highest concentration tested was 10 microM. […]

SMILES strings stand for the structures. Certain results were filed several times, with different values. They are shown here; other results are not. The source may hold further records. The records of an entry repeat one measurement in other runs, samples, wells, individuals or studies.
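Note: spheroids exposed to agents for seven days before readout.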

For `CNC(=O)c1ccc(Nc2nc(OC3CCCC3)c3c(-c4ccc5nc(C)oc5c4)c[nH]c3n2)c(OC)c1`, the IC50 (in general, the midpoint of a concentration-inhibition curve) (combination, run of 09/19/2023) is 291 nM, 196 nM, 182 nM, 486 nM, 855 nM, 217 nM, 302 nM, 775 nM, 1.47 µM, 331 nM, 359 nM, 369 nM.

`CCc1c2c(nc3ccc(O)cc13)-c1cc3c(c(=O)n1C2)COC(=O)[C@]3(O)CC`: the IC50 was 39.5 nM and < 3.16 nM.
